Consider 22 molecules from PMC12136788.

This is one part of the list.

The chains are these.
T1: UNK ZnF1-3 (human, UniProt Q9C0B0 31-174)
T1 sequence: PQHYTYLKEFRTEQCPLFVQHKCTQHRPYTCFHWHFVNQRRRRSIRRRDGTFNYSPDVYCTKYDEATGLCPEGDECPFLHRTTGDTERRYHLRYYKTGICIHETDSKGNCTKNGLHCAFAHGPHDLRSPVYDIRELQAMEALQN

B1: 192160836_192194664_288_CDS_ENSG00000128641_ENST00000304164|human|control|control (ssRNA)
RNA: GGGAGUUCUACAGUCCGACGAUCAAAGAUGUGAGGGCUCAGUUCAUAAAAAUUUCUGUUCCUGUAUUCUUCCACUUUCUCUGGUGAAUAAAUGGGUAAAGACCGGUAUGGGUUAACAGAUAUAACCACACUUCCAAUGUAUGUCAACAGAGGAUUGAGCAUCA
B2: chr4:106720802:106720803:+_ENSMUSG00000061887_ENSMUST00000030367|mus_hu|motif|central (ssRNA)
RNA: GGGAGUUCUACAGUCCGACGAUCGUUUUGUCCUUCUUGUUUUAUGGAAUAAAAAGUUUGGCCUUUUUAUUGCAUGAAACGGAAAUUGGGAAAGGUAGGGGGCGUGGAUGGGGUGGGAGGGGGUUGAGGGGAGCAGGGAGAUGCCAACAGAGGAUUGAGCAUCA
B3: chr17:49239293:49239294:+_ENSG00000239672_ENST00000393196|hu_mus|FALSE|FALSE (ssRNA)
RNA: GGGAGUUCUACAGUCCGACGAUCCACAGGGAGUCACAGCUCCCAAAGGUUCCUUCCAGGUCAAAGAAGUUCCAGAAAUAUCUAGGGUUGCUGGUCCCCUGCCUGUGAGAACAAGAGUAAGCAGGUAGAAAACCAGCACCGUCCCAACAGAGGAUUGAGCAUCA
B4: chr7:72463354:72463355:-_ENSMUSG00000030516_ENSMUST00000102592|mus_mus|FALSE|FALSE (ssRNA)
RNA: GGGAGUUCUACAGUCCGACGAUCUAGCUUCCUGGCGCUUUUCCGAGACUCCGGACACAACCUCAUCCUCAUUGUUUUUACACCUUGCUUAGAGUCAGGGUUAAGGAACACAACAAUUGGAUACCACUGCGCAUAAUUAAGACGCAACAGAGGAUUGAGCAUCA
B5: chr1:78428562:78428563:-_ENSG00000162613_ENST00000370768|hu_mus|FALSE|FALSE (ssRNA)
RNA: GGGAGUUCUACAGUCCGACGAUCAAUUGUAAAUAACUUCAUAUUGGGAUCUGCAUUAGGUGGAGGGCUUCUCUGCAGUUCUAUUCUUGCACCAGACUGUUGGCUUAUGCUUUUUAUGGUUUCACCUCCUUUUCCAAUGAUCAGCAACAGAGGAUUGAGCAUCA
B6: chr14:21343309:21343310:-_ENSMUSG00000021816_ENSMUST00000161445|mus_mus|motif|central (ssRNA)
RNA: GGGAGUUCUACAGUCCGACGAUCAGGAUCAGACCAUAGCAAGUCACACAUUGGUCCAAAUGCAGGUGGCUCUUUAAAUCGGUCGGAUCUCCUAAUAUCAUCCAGUGUGUGUAUUUCUGGUGAAAGUCCACCAUGAACACAAAGCAACAGAGGAUUGAGCAUCA
B7: 112478359_112480922_2652_CDS_ENSG00000111300_ENST00000261745|human|control|control (ssRNA)
RNA: GGGAGUUCUACAGUCCGACGAUCACCUUUACAUUUACUGAAGACAUCUUUUAACUGGUCUAGUAAAGACUUAAAACUAUUUUCUAUUCGUUCCUGAAUCUCCAUUGUAUCCUCUAAACCACUGGUAUCCAGCUCAUAAAUAUCCAACAGAGGAUUGAGCAUCA
B8: chr15:66793332:66793333:-_ENSG00000174444_ENST00000568588|hu_hu|motif|central (ssRNA)
RNA: GGGAGUUCUACAGUCCGACGAUCCAUGGGAAGAUUGUAGUUACUCUUGAGGGAAGCGGCUUUACGCCAAGUGCCGUACAAUUCAUCGGACUUCCGGAAAGCACUUUCAGUCCAAAUGCAGAAACGUCCCACAUGCCCACCAGGCAACAGAGGAUUGAGCAUCA
B9: chr17:5392700:5392701:+_ENSG00000167842_ENST00000573759|hu_hu|motif|central (ssRNA)
RNA: GGGAGUUCUACAGUCCGACGAUCGUUCUGUAGUUUUCUGGAGUUCUGAACCAGGGAUACUAAACUCUCCCUAAAAUCACGGGUCCCAUGAUCUCUGCCAACAUUAUGAAGCUCAUCAAAGAAAGUCAACGUCUGUUUGAGUUUCAACAGAGGAUUGAGCAUCA
B10: chr16:18284709:18284710:-_ENSMUSG00000022718_ENSMUST00000009321|mus_hu|motif|central (ssRNA)
RNA: GGGAGUUCUACAGUCCGACGAUCAACCACUGCCUCAAUUAUUGGAAAUCACAAUGCACUCAGCUUAAGUGACUGGCGACGGAGCGAGUCUGUCUUCAUGCCGGAGUGGCACCUUUCUUCUUCUACCUGAGGCGCCCGCGGGCUCAACAGAGGAUUGAGCAUCA
B11: chr7:140404665:140404666:+_ENSG00000090266_ENST00000247866|hu_hu|hu_hu_hu_mus_False|28_88 (ssRNA)
RNA: GGGAGUUCUACAGUCCGACGAUCUGCUCCUACUCGUCCAGAGAGUUUACACCUUCAGUCCUCGUCAUCAGGAGGGAUUCCCAGUUCUUCAUCUGUCCACUGUGAAGGAUCAGGAUAUGAAAAGUGACCCAGCACAGCAUCCGACAACAGAGGAUUGAGCAUCA
B12: 158574767_158574887_5279_3pUTR_ENSMUSG00000026596_ENSMUST00000166172|mouse|control|control (ssRNA)
RNA: GGGAGUUCUACAGUCCGACGAUCUUAAUAAUGCCCUCAAGUUUUCACUUCCUCUGCCCCAUCUAACUAAGUUAACUGCUAGAAUAAAUUCAAGUUUAUGCGUGCAUCCGAUGUGCAGAACAGUGGCCACCAAGGUGGAGGGAACAACAGAGGAUUGAGCAUCA
B13: chr7:156476592:156476593:-_ENSG00000105983_ENST00000359422|hu_hu|FALSE|FALSE (ssRNA)
RNA: GGGAGUUCUACAGUCCGACGAUCUCUACAGAAGAAUGCGCUGUUCUAUAUGUCUGUAAGGAAUCUGCACUUAACUGGAAACUACAGGGUCCAUCAGAAAGUUAAAUUUAAAAAAGAUCAGCCAUAGCCAAGUUCUUCGUAGAUCAACAGAGGAUUGAGCAUCA
B14: 184052540_184052660_4587_CDS_ENSG00000114867_ENST00000411531|human|control|control (ssRNA)
RNA: GGGAGUUCUACAGUCCGACGAUCCCACUUGAAGAAGGCUGUGACAGAUUUAAGGGCCACACCCUUGCCCUGCUGCUCAGCGGGGUCCUUGCUACUCUCCCAACUGUAGAAGGCAUCCUCCUUCACCACGUCCUCGUCAUACAGCAACAGAGGAUUGAGCAUCA
B15: chr15:75756842:75756843:-_ENSMUSG00000022570_ENSMUST00000023231|mus_hu|FALSE|FALSE (ssRNA)
RNA: GGGAGUUCUACAGUCCGACGAUCCAGCACGUGGCCAUCCUCGAUGUUGAAGUUGUCGUGGGGCCCGAAGACGUUGGUGGGGAUGACAGCGGUGAAGGUGCAGCCGUACUGCUGGAAGUAGGCCCUGUUCUGCACGUCGAUCAUCAACAGAGGAUUGAGCAUCA
B16: chr7:44244176:44244177:+_ENSG00000106636_ENST00000223369|hu_mus|hu_hu_hu_mus_False|18_18 (ssRNA)
RNA: GGGAGUUCUACAGUCCGACGAUCACUGUCGCUCCGGACGUAGACAUGGCAAAGAUACUCUUGUUCUUUGACAGAAGCUCUGCUGCCUUUCCCCGAGCGUUCCACAAUCAGUUGACUCGUGAAGGUCAUGAAUUCCUGCACACUCAACAGAGGAUUGAGCAUCA
B17: chr10:120825051:120825052:-_ENSG00000107581_ENST00000369144|hu_mus|FALSE|FALSE (ssRNA)
RNA: GGGAGUUCUACAGUCCGACGAUCAUCCAAAAGUCGAGCAAUAUCAGUUCGCUCAGGAGUAAUAGGAAUGGAAAGAGUCGCCAAAAGGACUCUAGUAGACAUUCUUUGCAUCUCUUCUUGUGUAAGAUUCUUUCUCAUUUCUCUCAACAGAGGAUUGAGCAUCA
B18: chr3:149684364:149684365:-_ENSG00000070087_ENST00000239940|hu_mus|FALSE|FALSE (ssRNA)
RNA: GGGAGUUCUACAGUCCGACGAUCUGAGUAUGCCUUCUUAUUCAAUCCGCCUCCAUGGACCCCUUCUUUUCCCAUUACAAAGACCAAGACUCUCCCGGCCCUGCCAACAGCAACGUUGUAUGUUGGCUCCCCACCUUGACUCUUCAACAGAGGAUUGAGCAUCA
B19: chr7:141441981:141441982:+_ENSG00000106028_ENST00000265304|hu_mus|hu_hu_hu_mus_False|1_78 (ssRNA)
RNA: GGGAGUUCUACAGUCCGACGAUCCUCAUGUCUUACAAACUGACGAAAUACCUGUAAUACAGGUCUUCGAAACAUGGCUUCUGUUUUUCUUACAACCUAAUCUUUAGGCUUUUCCUAAAGGAAAGAAAGAAAAGAGAAGCCCAGCAACAGAGGAUUGAGCAUCA
B20: chr3:148802587:148802588:-_ENSG00000071794_ENST00000310053|hu_mus|hu_hu_hu_mus_False|28_58 (ssRNA)
RNA: GGGAGUUCUACAGUCCGACGAUCUCCAACAACUUGUCCUCUCAUAGUUCCAAAUAAAACCAAAUCUUGCUCUUCAUCACUAGUUAGGAAGUCAUCUGGAGGAAUAACAUCUUGGAAUUCAAAAUGUGGCAAGAAAGUUGAGUACAACAGAGGAUUGAGCAUCA
B21: chr4:149991449:149991450:+_ENSMUSG00000039852_ENSMUST00000105680|mus_hu|FALSE|FALSE (ssRNA)
RNA: GGGAGUUCUACAGUCCGACGAUCACGCUCGGCUGCCAGUCUGUCAGGGUAGCUCAUCUCGGGCCGCAGCUGGGGGCCCGCCAGGGCCAGUCUCUCCCUCUCCAAGGGGUUCAGGCCCGGGUGGAAAGAAGCAAAAGGGUGGGGCAACAGAGGAUUGAGCAUCA
B22: chr14:67423352:67423353:-_ENSMUSG00000022048_ENSMUST00000022629|mus_mus|motif|central (ssRNA)
RNA: GGGAGUUCUACAGUCCGACGAUCAAACUAGGAUAGCACAAAACUAUGGUGGUGGGGGCAAAACUAAGAUCUGCUCAGGCGGUGCCUGAGACCAAACUGGGUUGCCUGGCUUUAAGAGCAGACAGAGUUAAGAGGAAAAAAAAACAACAGAGGAUUGAGCAUCA

In the assay the target is T1, UNK ZnF1-3. In words: nsRBNS (natural sequence RNA bind-n-seq); RBNS binding buffer (assumed for nsRBNS): 25 mM Tris pH 7.5, 150 mM KCl, 3 mM MgCl2, 0.01% Triton X-100, 500 ug/ml BSA, 20 U/ml SUPERase-In, 4 C; UNK is unkempt and MSI1 is Musashi-1; names of the RNAs are library labels; protein concentration not given here; high values mean tight binding.
On to B1, for which the binding signal worked out at 1.14 enrichment R.

In turn, B2 returned a binding signal of 1.2 enrichment R.

On to B3, for which the binding signal was found to be 0.811 enrichment R. The same measure for B4: 1.35 enrichment R; for B5: 0.66 enrichment R; for B6: 0.832 enrichment R. On to B7, for which the binding signal worked out at 0.977 enrichment R. The figure for B8 is 0.923 enrichment R. The figure for B9 is 0.926 enrichment R; for B10 it is 0.874 enrichment R; for B11 it is 1.1 enrichment R. The same measure for B12: 1.37 enrichment R; for B13: 1.75 enrichment R. B14 had a binding signal of 0.809 enrichment R. In the case of B15, the binding signal came to 0.958 enrichment R. The figure for B16 is 0.605 enrichment R.

As to B17, the binding signal stood at 0.719 enrichment R. The same measure for B18: 0.684 enrichment R; for B19: 0.362 enrichment R; for B20: 1.54 enrichment R. The figure for B21 is 1.41 enrichment R. The figure for B22 is 1.89 enrichment R.
